In paper PMC6919601, “Identification of Plasmodium dipeptidyl aminopeptidase allosteric inhibitors by high throughput screening” (PLoS ONE, 2019):

How the values were obtained:
DPAP1 [1] = molecular target: T1, DPAP1 (Plasmodium falciparum, UniProt Q8IIJ9); details: false positive, i.e. no inhibition at 100 mM (footnote b); 10 μM (PR)2Rho, continuous assay
T1 sequence (Q8IIJ9 370-599 limits assumed): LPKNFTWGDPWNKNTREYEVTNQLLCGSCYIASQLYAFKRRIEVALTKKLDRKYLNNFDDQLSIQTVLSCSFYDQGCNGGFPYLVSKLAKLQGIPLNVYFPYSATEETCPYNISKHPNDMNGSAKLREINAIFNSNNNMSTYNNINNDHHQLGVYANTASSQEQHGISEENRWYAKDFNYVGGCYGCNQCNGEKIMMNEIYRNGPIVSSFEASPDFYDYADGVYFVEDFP
T1 sequence (Q8IIJ9 28-209 limits assumed): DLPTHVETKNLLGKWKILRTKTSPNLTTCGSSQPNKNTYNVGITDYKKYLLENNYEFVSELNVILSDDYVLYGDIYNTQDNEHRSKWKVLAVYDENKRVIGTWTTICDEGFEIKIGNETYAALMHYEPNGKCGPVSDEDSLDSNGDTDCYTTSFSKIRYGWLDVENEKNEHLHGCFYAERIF
T1 sequence (Q8IIJ9 600-700 limits assumed): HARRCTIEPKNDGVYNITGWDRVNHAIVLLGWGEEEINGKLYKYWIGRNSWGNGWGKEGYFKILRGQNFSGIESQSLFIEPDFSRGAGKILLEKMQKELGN

[2] = test system: WI-38 primary lung fibroblast; assay: cells; parameters: Cell toxicity screen in WI-38 primary lung fibroblasts at 10 uM (SMDC assay 440); details: Homo sapiens, sheet All cpds;, SMDC cell toxicity assay 440
[3] = test system: WI-38 primary lung fibroblast; details: 10 uM; ref SMDC Assay #440; cited from earlier work
DPAP1 [4] = molecular target: T1, DPAP1; assay: biochemical; format: biochemical; details: for inhibition at 10 µM: read-out: DPAP1 % Inhibition @ 10 uM; for DPAP Primary hit (Hit = 1): 10 μM HTS, 0 not defined
[5] = test system: human foreskin fibroblast cells; assay: Cytotoxicity assay, CellTiter-Glo; details: 24h treatment, 4 biological replicates
bovine CatC = bovine CatC (Bos taurus, UniProt Q3ZCJ8); assay: Dose response inhibition assay, CatC with GR-AMC substrate; details: for Emax: 0.5 h, read-out: Maximum % Inhibition CatC, substrate at Km
DPAP1 [6] = molecular target: T1, DPAP1; assay: biochemical; format: biochemical; details: for DPAP1 inhibition Model: COM competitive, UNC uncompetitive, P-M partial mixed, P-C partial competitive, P-NC partial non-competitive, P-U partial uncompetitive; for DPAP1 α: factor by which Km is modified at saturating inhibitor; for DPAP1 β: factor by which kcat (Vmax) is modified at saturating inhibitor; for pKi: global fit to MOI model, standard error of fit in parentheses
FP3 [7] = molecular target: T2, FP3 (Plasmodium falciparum, UniProt Q8IIL0); assay: biochemical; format: biochemical; details: for FP3 inhibition Model: COM competitive, UNC uncompetitive, P-M partial mixed, P-C partial competitive, P-NC partial non-competitive, P-U partial uncompetitive; for pKi: global fit to MOI model, standard error of fit in parentheses, read-out: FP3 Ki; for FP3 α: factor by which Km is modified at saturating inhibitor; for FP3 β: factor by which kcat (Vmax) is modified at saturating inhibitor
T2 sequence (Q8IIL0 243-492): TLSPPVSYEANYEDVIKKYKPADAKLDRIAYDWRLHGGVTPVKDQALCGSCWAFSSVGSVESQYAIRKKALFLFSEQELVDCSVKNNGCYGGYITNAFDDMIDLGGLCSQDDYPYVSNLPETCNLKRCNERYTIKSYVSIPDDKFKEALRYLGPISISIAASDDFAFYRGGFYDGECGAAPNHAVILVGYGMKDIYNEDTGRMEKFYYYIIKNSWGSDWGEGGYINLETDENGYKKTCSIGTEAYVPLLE

DPAP3 = DPAP3 (Plasmodium falciparum, UniProt Q8I1Y2); assay: biochemical; details: 0.5 h, read-out: Maximum % Inhibition DPAP3
P. falciparum = assay: Standard 72 h parasite replication assay; format: cell-based, Plasmodium falciparum; details: Plasmodium falciparum, 72h replication assay; for inhibition at 100 µM: read-out: Pf % Inh @ 100 μM; for pEC50: 3 biological replicates, read-out: Pf EC50
FP3 [8] = molecular target: T2, FP3; assay: biochemical; details: for Emax: 0.5 h, read-out: Maximum % Inhibition FP3, substrate at Km
DPAP1 [9] = molecular target: T1, DPAP1; assay: biochemical; format: biochemical; details: for Emax: 0.5 h, VR-ACC at Km, > = inhibition at the highest concentration, no baseline reached, read-out: Maximum % Inhibition DPAP1
CatC = CatC (Bos taurus, UniProt Q3ZCJ8); assay: Mechanism of inhibition studies, CatC; format: biochemical, bovine; details: for CatC inhibition Model: COM competitive, UNC uncompetitive, P-M partial mixed, P-C partial competitive, P-NC partial non-competitive, P-U partial uncompetitive; for CatC α: factor by which Km is modified at saturating inhibitor; for CatC β: factor by which kcat (Vmax) is modified at saturating inhibitor; for pKi: global fit to MOI model, standard error of fit in parentheses, read-out: CatC Ki
FP3 [10] = molecular target: T2, FP3; details: ratio of IC50 values
[11] = 10 μM compound, parasite lysates, (PR)2Rho, 30 min end-point

bovine CatC, sequence (Q3ZCJ8 231-394 limits assumed): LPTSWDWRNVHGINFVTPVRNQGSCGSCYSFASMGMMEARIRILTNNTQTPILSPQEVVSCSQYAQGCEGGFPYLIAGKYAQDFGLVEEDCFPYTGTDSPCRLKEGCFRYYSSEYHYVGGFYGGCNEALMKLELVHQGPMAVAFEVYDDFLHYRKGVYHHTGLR
bovine CatC, sequence (Q3ZCJ8 25-134 limits assumed): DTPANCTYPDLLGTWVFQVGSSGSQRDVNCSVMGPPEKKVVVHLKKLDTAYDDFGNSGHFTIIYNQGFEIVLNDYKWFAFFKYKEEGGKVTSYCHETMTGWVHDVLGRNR
bovine CatC, sequence (Q3ZCJ8 395-463 limits assumed): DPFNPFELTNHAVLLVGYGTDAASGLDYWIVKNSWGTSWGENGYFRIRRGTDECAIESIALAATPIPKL
CatC, sequence (Q3ZCJ8 231-394 limits assumed): as the sequence (Q3ZCJ8 231-394 limits assumed) above
CatC, sequence (Q3ZCJ8 25-134 limits assumed): as the sequence (Q3ZCJ8 25-134 limits assumed) above
CatC, sequence (Q3ZCJ8 395-463 limits assumed): as the sequence (Q3ZCJ8 395-463 limits assumed) above
DPAP3, sequence (Q8I1Y2 entry or part of it): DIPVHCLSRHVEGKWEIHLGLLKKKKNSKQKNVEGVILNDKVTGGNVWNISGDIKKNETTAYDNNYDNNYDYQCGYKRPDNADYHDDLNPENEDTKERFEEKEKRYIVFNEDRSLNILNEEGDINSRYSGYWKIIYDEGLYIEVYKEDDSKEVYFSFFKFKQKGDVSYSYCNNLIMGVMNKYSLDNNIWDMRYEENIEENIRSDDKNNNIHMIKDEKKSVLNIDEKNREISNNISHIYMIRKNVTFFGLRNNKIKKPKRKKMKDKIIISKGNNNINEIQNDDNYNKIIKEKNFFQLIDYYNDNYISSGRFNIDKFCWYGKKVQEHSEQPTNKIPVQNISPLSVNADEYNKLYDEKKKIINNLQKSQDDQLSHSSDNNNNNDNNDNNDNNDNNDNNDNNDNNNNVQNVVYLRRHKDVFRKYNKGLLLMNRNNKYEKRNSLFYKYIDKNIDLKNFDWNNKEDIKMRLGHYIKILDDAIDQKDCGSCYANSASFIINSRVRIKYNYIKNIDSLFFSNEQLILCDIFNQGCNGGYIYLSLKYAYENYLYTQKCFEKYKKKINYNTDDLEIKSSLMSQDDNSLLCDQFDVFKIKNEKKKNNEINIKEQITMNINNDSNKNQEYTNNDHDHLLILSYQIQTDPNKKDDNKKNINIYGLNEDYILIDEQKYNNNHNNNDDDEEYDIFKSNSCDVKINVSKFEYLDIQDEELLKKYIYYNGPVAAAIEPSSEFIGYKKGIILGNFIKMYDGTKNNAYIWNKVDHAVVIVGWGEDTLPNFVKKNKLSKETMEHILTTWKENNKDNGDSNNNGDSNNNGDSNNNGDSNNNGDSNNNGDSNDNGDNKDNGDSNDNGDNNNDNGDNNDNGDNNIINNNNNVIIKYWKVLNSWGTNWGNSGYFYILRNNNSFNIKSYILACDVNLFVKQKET

| SMILES | DPAP1 inhibition on re-test of purchased compound (DPAP1 [1]) | inhibition at 10 µM [2] [%] | Cell Toxicity WI-38 primary lung fibroblast %Inhibition @ 10 uM [3] [%] | inhibition at 10 µM (DPAP1 [4]; [11]) [%] | Tox EC50 / Cytox EC50 [5] | pIC50 (bovine CatC) | Emax (bovine CatC) [%] | DPAP1 inhibition Model (DPAP1 [6]) | DPAP1 α (DPAP1 [6]) | DPAP1 β (DPAP1 [6]) | pKi (DPAP1 [6]) | FP3 inhibition Model (FP3 [7]) | Emax (DPAP3) [%] | inhibition at 100 µM (P. falciparum) [%] | pEC50 (P. falciparum) | pIC50 (FP3 [8]) | Emax (FP3 [8]) [%] | pIC50 (DPAP1 [9]) | Emax (DPAP1 [9]) [%] | DPAP Primary hit (Hit = 1) (DPAP1 [4]) | further results |
| --- | --- | --- | --- | --- | --- | --- | --- | --- | --- | --- | --- | --- | --- | --- | --- | --- | --- | --- | --- | --- | --- |
| CC(=O)Nc1ccc(Oc2ccc(NC(C)=O)c(NC(C)=O)c2)cc1 [SMDC103191, CC(=O)Nc1ccc(Oc2ccc(NC(=O)C)c(NC(=O)C)c2)cc1] | False Positive | 13.3 | 13 | 71 |  |  |  |  |  |  |  |  |  |  |  |  |  |  |  |  |  |
| COc1cc(/C=C2/NC(=O)N(Cc3ccccc3F)C2=O)cc(Br)c1O [SMDC103222, COc1cc(\C=C/2\NC(=O)N(Cc3ccccc3F)C2=O)cc(Br)c1O] |  | 14.2 | 14 | 63 | 400 (120) μM | 5.85 | 90 | P-C | 2.12 (0.09) | = 1 | 5.96 | uncompetitive | > 75 | 75 | 4.64 | 4.80 | 100 | 5.77 | 50 |  | FP3 inhibition Model (FP3 [7]; listed as 103222): UNC; pKi (FP3 [7]): 5.04 |
| COc1ccc(S(=O)(=O)N2CCSC2c2ccccc2Cl)cc1 (centres unmarked) [SMDC112387, COc1ccc(cc1)S(=O)(=O)N2CCSC2c3ccccc3Cl] | False Positive | 9.9 | 10 |  |  |  |  |  |  |  |  |  |  |  |  |  |  |  |  |  | inhibition at 10 µM (DPAP1 [4]): 69% |
| Cc1cc(Oc2nc3ccccn3c(=O)c2/C=C(\C#N)c2nc3ccccc3[nH]2)ccc1Cl [SMDC158196, Cc1cc(OC2=C(\C=C(/C#N)\c3nc4ccccc4[nH]3)C(=O)N5C=CC=CC5=N2)ccc1Cl] | False Positive |  | -2 | 92 |  |  |  |  |  |  |  |  |  |  |  |  |  |  |  |  |  |
| Cc1cccc(-n2c(C)cc(/C=C3\C(=N)N4N=C(S(C)(=O)=O)SC4=NC3=O)c2C)c1 [SMDC168863, Cc1cccc(c1)n2c(C)cc(\C=C/3\C(=O)N=C4SC(=NN4C3=N)S(=O)(=O)C)c2C] | False Positive, PAIN | 4.9 | 5 | 53 |  |  |  |  |  |  |  |  |  |  |  |  |  |  |  |  |  |
| N#CC1=C2SCN(Cc3ccco3)CN2C(=O)CC1c1cccc(OCc2ccccc2)c1 (centres unmarked) [SMDC170136, O=C1CC(C(=C2SCN(Cc3occc3)CN12)C#N)c4cccc(OCc5ccccc5)c4] |  |  | 18 | 67 | 180 (20) μM | 7.15 | 65 | P-C | 2.3 (0.1) | = 1 | 5.85 | P-U | 10 | 79 | 4.85 | 7.00 | 99 | 5.89 | 83 | 1 | FP3 α (FP3 [7]): 0.07 (0.02); FP3 β (FP3 [7]): 0.07 (0.02); pKi (FP3 [7]): 4.92; CatC inhibition Model (CatC): P-NC; CatC α (CatC): = 1; CatC β (CatC): 0.56 (0.02); pKi (CatC): 6.10 |
| N#CC1=C2SCN(C3CCCCC3)CN2C(=O)CC1c1cccc2ccccc12 (centres unmarked) [SMDC170156, O=C1CC(C(=C2SCN(CN12)C3CCCCC3)C#N)c4cccc5ccccc45] |  |  | 8 | 54 | 240 (50) μM | 6.21 | 65 |  |  |  |  |  | 19 | 66 | 4.51 | 6.21 | 95 | 5.96 | 73 | 1 | CatC inhibition Model (CatC): P-NC; CatC α (CatC): = 1; CatC β (CatC): 0.52 (0.04); pKi (CatC): 5.43 |
| COc1cccc(C2CC(=O)N3CN(CCc4sccc4C)CSC3=C2C#N)c1 (centres unmarked) [SMDC178790, COc1cccc(c1)C2CC(=O)N3CN(CCc4sccc4C)CSC3=C2C#N] |  |  | -4 | 57 | 200 (50) μM | 6.48 | 66 | P-C | 2.7 (0.2) | = 1 | 6.40 |  | 18 | 74 | 5.40 | 6.57 | 92 | 6.08 | 60 | 1 |  |
| Cc1ccsc1CCN1CSC2=C(C#N)C(c3ccc(Cl)cc3)CC(=O)N2C1 (centres unmarked) [SMDC178801, Cc1ccsc1CCN2CSC3=C(C#N)C(CC(=O)N3C2)c4ccc(Cl)cc4] |  |  | -6 | 52 | 52 (9) μM | 6.96 | 48 | P-C |  | = 1 | 6.44 | P-M | 20 | 78 | 4.51 | 7.16 | 93 | 6.05 | 75 | 1 | DPAP1 α (DPAP1 [6]; listed as 178801): 3.2 (0.2); FP3 α (FP3 [7]): < 1; FP3 α (FP3 [7]; listed as 178801): 0.22 (0.09); FP3 β (FP3 [7]): 0.09 (0.03); pKi (FP3 [7]): 5.18; Selectivity towards FP3 compared to FP2 (FP3 [10]): more than 50 fold |
| CCOc1ccc(C2CC(=O)N3CN(C(C)c4ccccc4)CSC3=C2C#N)cc1 (centres unmarked) [SMDC178822, CCOc1ccc(cc1)C2CC(=O)N3CN(CSC3=C2C#N)C(C)c4ccccc4] |  |  | 0 | 53 | 100 (25) μM | 6.92 | 48 |  |  |  |  |  | 16 | 78 | 4.55 | 7.10 | 99 | 6.19 | 82 | 1 | Selectivity towards FP3 compared to FP2 (FP3 [10]): more than 50 fold |

pEC50, pIC50, pKi: −log10 of the molar value. Read-outs that look alike come from different tables or passages of the source.
